From publication PMC10662374, “Structures of the interleukin 11 signalling complex reveal gp130 dynamics and the inhibitory mechanism of a cytokine variant” (Nature Communications, 2023)
Residue numbers refer to the chain shown, from its start. Numbers in names are those of the source. Results are given in words; binding and its absence hold for the method and conditions named. Some binding calls cover weakened binding; strength is not graded here.

Key:
[1] = molecular target: T1, IL-11_(Δ10/Mutein)/IL-11Rα_(D1-D3)/gp130_(D1-D3) complex (human) (UniProt P20809+Q14626+P40189); test: SEC-MALS; Zenix-C SEC-300 column, 20 mM Tris, 150 mM sodium chloride pH 8.5, ~2 mg/mL applied; both purified
[2] = molecular target: T1, IL-11_(Δ10/Mutein)/IL-11Rα_(D1-D3)/gp130_(D1-D3) complex (human); test: AUC; sedimentation velocity, 50,000 rpm, 20 °C, c(s) model with floating frictional ratio (SEDFIT); both purified
[3] = molecular target: T1, IL-11_(Δ10/Mutein)/IL-11Rα_(D1-D3)/gp130_(D1-D3) complex (human); test: SAXS; in-line size exclusion (Superdex 200 5/150 Increase), TBS pH 8.5, 0.2% sodium azide; fit of models with CRYSOL; both purified
[4] = molecular target: T2, IL-11Δ10/IL-11Rα_(D1-D3) binary complex (human, UniProt P20809 32-199; Q14626 23-319); test: SEC-MALS; Zenix-C SEC-300 column, 20 mM Tris, 150 mM sodium chloride pH 8.5, ~2 mg/mL applied; both purified
T2 construct: IL-11, human, IL-11Δ10, as m1; numbers count on: the mature protein; IL-11Rα, human, D1-D3, as m8; m1 with m8; also called IL-11Rα_(D1-D3)/IL-11Δ10 binary complex; binary IL-11/IL-11Rα complex; source: formed from the purified proteins (IL-11Δ10 from E. coli, IL-11Rα_(D1-D3) from Sf21); in ITC by titrating the cytokine into IL-11Rα; not shown: His6, N-terminal, cleaved; His8, N-terminal, cleaved; …
T2 sequence 1: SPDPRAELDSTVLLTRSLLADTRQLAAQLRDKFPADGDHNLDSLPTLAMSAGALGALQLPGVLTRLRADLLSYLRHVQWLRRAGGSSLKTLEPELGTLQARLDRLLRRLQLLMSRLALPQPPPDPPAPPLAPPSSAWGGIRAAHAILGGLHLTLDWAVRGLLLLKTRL
T2 sequence 2: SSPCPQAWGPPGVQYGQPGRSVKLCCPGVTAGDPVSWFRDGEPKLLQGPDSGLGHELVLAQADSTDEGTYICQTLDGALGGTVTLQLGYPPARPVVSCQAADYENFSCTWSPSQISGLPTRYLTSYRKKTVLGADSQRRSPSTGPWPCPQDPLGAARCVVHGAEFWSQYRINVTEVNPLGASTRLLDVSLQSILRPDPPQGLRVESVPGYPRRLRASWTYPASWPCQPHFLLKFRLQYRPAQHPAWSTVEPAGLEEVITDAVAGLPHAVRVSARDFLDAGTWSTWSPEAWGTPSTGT

[5] = molecular target: T3, IL-11_(Δ10/Mutein)/IL-11Rα_(D1-D3) binary complex (human) (UniProt P20809+Q14626); test: as above
T3 sequence 1: T2 sequence 1 with A48P, M49A, S50I, A51D, G52Y, W137A
T3 sequence 2: T2 sequence 2

[6] = molecular target: T2, IL-11Δ10/IL-11Rα_(D1-D3) binary complex; test: AUC; sedimentation velocity, 50,000 rpm, 20 °C, c(s) model with floating frictional ratio (SEDFIT); both purified
[7] = molecular target: T3, IL-11_(Δ10/Mutein)/IL-11Rα_(D1-D3) binary complex (human); test: as above
[8] = molecular target: T4, IL-11_(Δ10/W147A)/IL-11Rα_(D1-D3) binary complex (human) (UniProt P20809+Q14626); test: as above
T4 sequence 1: T2 sequence 1 with W137A
T4 sequence 2: T2 sequence 2

[9] = molecular target: T2, IL-11Δ10/IL-11Rα_(D1-D3) binary complex; test: SAXS; in-line size exclusion (Superdex 200 5/150 Increase), TBS pH 8.5, 0.2% sodium azide; fit of models with CRYSOL; both purified
[10] = molecular target: T5, IL-11_(Δ10/Mutein) (human) (UniProt P20809); test: as above
T5 sequence: T2 sequence 1 with A48P, M49A, S50I, A51D, G52Y, W137A

[11] = molecular target: T3, IL-11_(Δ10/Mutein)/IL-11Rα_(D1-D3) binary complex (human); test: as above
[12] = molecular target: T2, IL-11Δ10/IL-11Rα_(D1-D3) binary complex; test: AUC; sedimentation equilibrium at three speeds, single-species analysis (SEDPHAT), relative molecular mass M*; complexes size exclusion purified before; both purified
IL-11Rα_(D1-D3) (human) = molecular target: T6, IL-11Rα_(D1-D3) (human) (UniProt Q14626); test: cryo-EM structure; IL-11Δ10/IL-11Rα_(D1-D3)/gp130_(D1-D3) complex, equimolar mix, size exclusion purified in TBS pH 8.0, 0.5 mg/mL on grids; C2 symmetry, 3.5 Å; both purified
T6 sequence (chain, N-linked glycans (N105, N172 seen in the structures)): T2 sequence 2

IL-11Δ10 (human) = molecular target: T7, IL-11Δ10 (human) (UniProt P20809); test: as above
T7 sequence: T2 sequence 1

IL-11RαEC (human) = molecular target: T8, IL-11RαEC (human) (UniProt Q14626); test: crystal structure; IL-11FL/IL-11RαEC/gp130_(D1-D3) complex, equimolar mix purified by gel filtration, crystals at 20 °C; anisotropic data to 3.8 Å, three hexamers in the asymmetric unit; both purified
T8 sequence (chain, N-linked glycans (N105, N172 seen in the structures)): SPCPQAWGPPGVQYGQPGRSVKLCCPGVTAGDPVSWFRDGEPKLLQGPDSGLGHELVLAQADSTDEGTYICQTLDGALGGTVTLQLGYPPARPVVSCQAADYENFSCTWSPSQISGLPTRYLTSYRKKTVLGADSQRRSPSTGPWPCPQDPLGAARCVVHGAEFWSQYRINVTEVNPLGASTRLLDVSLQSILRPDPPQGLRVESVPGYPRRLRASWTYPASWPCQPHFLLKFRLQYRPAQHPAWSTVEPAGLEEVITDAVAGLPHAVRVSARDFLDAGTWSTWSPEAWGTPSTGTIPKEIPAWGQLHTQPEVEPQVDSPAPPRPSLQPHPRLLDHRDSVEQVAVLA

[13] = molecular target: IL-11_(Δ10/W147A) (human) (UniProt P20809); test: AUC; sedimentation velocity, 50,000 rpm, 20 °C, c(s) model with floating frictional ratio (SEDFIT); both purified
[14] = molecular target: T5, IL-11_(Δ10/Mutein) (human); test: as above

## IL-11_(Δ10/Mutein)/IL-11Rα_(D1-D3)/gp130_(D1-D3) complex (from UniProt P20809 32-199; Q14626 23-319; P40189 22-325)
[1]
  binding: no binding
[2]
  binding: no binding
[3]
  binding: no binding

B1: gp130_(D1-D3) (receptor, human)
chain: GELLDPCGYISPESPVVQLHSNFTAVCVLKEKCMDYFHVNANYIVWKTNHFTIPKEQYTIINRTASSVTFTDIASLNIQLTCNILTFGQLEQNVYGITIISGLPPEKPKNLSCIVNEGKKMRCEWDGGRETHLETNFTLKSEWATHKFADCKAKRDTPTSCTVDYSTVYFVNIEVWVEAENALGKVTSDHINFDPVYKVKPNPPHNLSVINSEELSSILKLTWTNPSIKSVIILKYNIQYRTKDASTWSQIPPEDTASTRSSFTVQDLKPFTEYVFRIRCMKEDGKGYWSDWSEEASGITYEDR
modifications: N-linked glycans (N21, N61, N135 seen in the structures)
notes: glycoprotein 130 (gp130), human, domains D1-D3; Secreted with a honeybee-melittin signal peptide; not shown: His8, N-terminal, cleaved
[4]
  binding: binds
[5]
  binding: binds
[6]
  binding: binds
[7]
  binding: binds
[8]
  binding: binds
[9]
  binding: binds
[10]
  binding: binds
[11]
  binding: binds
[12]
  binding: binds
IL-11Rα_(D1-D3) (human)
  binding: binds
IL-11Δ10 (human)
  binding: binds
IL-11RαEC (human)
  binding: binds

B2: IL-11_(Δ10/W147A) (ligand, human)
chain: T2 sequence 1 with W137A
notes: interleukin 11 (IL-11), human, IL-11Δ10 with W147A; numbers count on: the mature protein; also called IL-11 W147A; W147A mutant; not shown: His6, N-terminal, cleaved
[13]
  binding: no binding

B3: IL-11_(Δ10/Mutein) (ligand, human)
chain: T2 sequence 1 with A48P, M49A, S50I, A51D, G52Y, W137A
notes: interleukin 11 (IL-11), human, IL-11Δ10 with W147A and AB loop residues 58-62 AMSAG changed to PAIDY; numbers count on: the mature protein; Parent construct IL-11Δ10; also called IL-11 Mutein; not shown: His6, N-terminal, cleaved
[14]
  binding: no binding
